# Over roughly 33,000 sequences, “E-score (-0.5 to 0.5)” has its median near -0.054; the highest 2% begin near 0.35. Some of the results follow.
# Molecular target: T1, Stb5 (UniProt P38699)
# T1 sequence: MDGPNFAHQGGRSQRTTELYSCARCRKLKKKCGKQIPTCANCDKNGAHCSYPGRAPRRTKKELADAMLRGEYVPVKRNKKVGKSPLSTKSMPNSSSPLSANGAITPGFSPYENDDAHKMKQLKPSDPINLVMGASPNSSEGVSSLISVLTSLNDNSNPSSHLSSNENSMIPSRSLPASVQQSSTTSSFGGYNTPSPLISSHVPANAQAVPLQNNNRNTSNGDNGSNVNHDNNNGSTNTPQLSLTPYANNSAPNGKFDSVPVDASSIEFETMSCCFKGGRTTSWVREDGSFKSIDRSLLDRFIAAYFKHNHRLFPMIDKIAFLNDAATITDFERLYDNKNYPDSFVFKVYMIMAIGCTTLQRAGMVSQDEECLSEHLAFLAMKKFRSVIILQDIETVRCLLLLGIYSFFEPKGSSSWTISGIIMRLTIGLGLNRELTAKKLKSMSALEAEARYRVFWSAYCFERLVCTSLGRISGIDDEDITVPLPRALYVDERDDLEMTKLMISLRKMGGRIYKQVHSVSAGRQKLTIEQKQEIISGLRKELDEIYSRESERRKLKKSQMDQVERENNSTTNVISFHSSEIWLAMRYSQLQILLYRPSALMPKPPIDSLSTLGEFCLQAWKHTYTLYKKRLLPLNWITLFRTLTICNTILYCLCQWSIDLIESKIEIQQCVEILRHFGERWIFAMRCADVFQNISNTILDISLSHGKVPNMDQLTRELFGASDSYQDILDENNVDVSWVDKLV
# Experiment: PBM E-score (8-mer binding enrichment) (E-score (-0.5 to 0.5)); higher = stronger / more preferred TF binding; most listed sequences are background and not binding sites
# Details: protein concentration: 200 nM; construct: GST-full length
# Method in brief: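 PURExpress in vitro transcription/translation supplied GST-tagged yeast transcription factors, either full-length or DNA-binding domain. Applied at about 100-200 nM to universal all-10-mer Agilent arrays double-stranded by primer extension, the bound protein was detected with fluorescent anti-GST. E-scores, modified Wilcoxon-Mann-Whitney statistics, were given by the Universal PBM Analysis Suite to ungapped eight-base words pooled with their reverse complements after masliner normalisation.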
row,Sequence,PBM E-score
1,CGACCGGA,0.285
2,GTGGAAGA,-0.047
3,TATTGAGA,-0.0554
4,ACCGGCGG,0.403
5,CCTTTAAG,-0.0922
6,ACTGGCGG,0.315
7,GTAAGTCA,-0.206
8,CTAGGTGC,-0.154
9,ACAGAGAA,-0.145
10,CGGCCGAC,0.205
11,CGAAAAAG,0.0805
12,ACGCCCGA,0.208
13,ACTTCCCA,-0.166
14,AAAATTTA,-0.072
15,GCATCAAC,0.0162
16,CCTGTAAG,-0.299
17,CCGGATAG,0.116
18,ACCAAAAG,-0.113
19,AATGCAGC,-0.219
20,GGGGCATA,0.083
21,CGCGGTAC,0.34
22,TACATCCA,-0.183

row,Sequence,PBM E-score
1,TCATAAGA,0.0982
2,ACCGAGTG,0.146
3,TAATTTCA,-0.123
4,CCTGGGCC,2e-05
5,AGGCTGCG,0.0438
6,CCAGTAAA,-0.0753
7,GACTCTAA,-0.0912
8,AGTATTCA,-0.0558
9,TCATCCCA,-0.235
10,ACCCTTCG,-0.0383
11,ACTTCAAA,-0.118
12,CAAAGTAA,-0.048
13,AATTTGGA,-0.246
14,ACCAATGC,0.0645
15,AGAATTGG,-0.0192
16,CCGGAAAA,0.178
17,CGATATAA,0.0105
18,CCATCCGG,0.111
19,CTACACAG,-0.206
20,GTAGGCAC,0.00995
21,ACTTTCGG,0.151
22,AACGATTC,-0.141

row,Sequence,PBM E-score
1,CAAGTCGG,0.227
2,AGTACAGG,0.0943
3,GCGAAAGC,-0.214
4,ATAATGTC,0.298
5,AGCATTTG,-0.103
6,AAAGAAGG,-0.116
7,CCGTAACA,0.145
8,CGGCTGGC,-0.154
9,ACACGACG,-0.105
10,ATGTAAGA,-0.01
11,ATTTGTCA,-0.113
12,ACTTCCAA,-0.258
13,ATGCACAT,-0.152
14,CCGGGGAG,0.188
15,ACCAGGGA,-0.324
16,ACTAGAAT,-0.0271
17,AACTATGT,-0.125
18,AATCAAGT,-0.0996
19,CAAACCGC,0.126
20,ACGCGCAA,0.102
21,GTGACTCA,-0.153
22,GCAGTCAC,-0.206

row,Sequence,PBM E-score
1,ACCACCTG,-0.0493
2,AATTGTTG,-0.215
3,CGATGCCA,-0.0879
4,CACTCATA,-0.162
5,ACAGATTG,-0.144
6,GATAAAGA,-0.0231
7,AAGGGCTC,-0.296
8,ATGACGAC,-0.12
9,GTCAACCA,-0.194
10,CGTCATTA,0.103
11,CGTTTATC,-0.00571
12,ATCATCCC,0.131
13,AACCAACA,-0.0255
14,ACTAAACA,-0.143
15,ATAGTGGG,-0.0958
16,ACCACGCG,0.0234
17,CGCGTGGA,0.0379
18,CGTGGCAG,-0.242
19,GTTAGGGA,-0.225
20,AGTGACCG,0.09
21,GCCTAGGC,-0.0482
22,CCTGGCTC,-0.184

row,Sequence,PBM E-score
1,ACGTCTAG,-0.198
2,ACTCACGG,0.172
3,CCGACGAA,0.293
4,CAGTAAGA,-0.121
5,ACCGTGGA,0.299
6,AGTGGTGC,-0.0849
7,AGGTGAGC,-0.045
8,ACCCCCTG,-0.11
9,GCCTGACC,0.0907
10,GTAATGGA,-0.116
11,GACCATGC,-0.196
12,AAGACTTC,-0.218
13,CCGTCAGG,0.0905
14,CCGATACG,0.31
15,ACTCCTGG,-0.152
16,AACGAACA,0.09
17,GGCGCCGA,0.282
18,AGCCTGCC,-0.229
19,TCCAAAAA,-0.0241
20,CAACGTCA,-0.267
21,GAGACCGA,0.257

# — the supplement of paper PMC3334620
